Assays:
Assay type in all cases: biochemical
[1] = substrate: Cc1cn([C@H]2C[C@H](O)[C@@H](COP(=O)(O)OP(=O)(O)OP(=O)(O)O)O2)c(=O)[nH]c1=O; assay: Rate of DNA synthesis on primed M13 template, apparent Km; conditions: other: 72° C.
Experimental: (§1) FIGS. 4A-C show: A time course of DNA synthesis in the presence of 12.5 μM [^32 P]dCTP, dATP, dGTP and TTP (open diamonds) or dPTP (full squares). Primed M13mp18 was used as a template for DNA synthesis in the presence of 0.3 U Taq polymerase. FIGS. 4 B and C show the rate of DNA synthesis during the first 80 seconds of the reaction in the presence of 12.5 μM dATP, dGTP and [^32 P]dCTP and the indicated concentrations of dPTP (B) and TTP (C);
(§2) DNA synthesis was measured by the incorporation of [α-^32 P]dCTP using a primed M13 template at 72° C. Incorporation increased linearly in the first 80 seconds when either dPTP or TTP were present. In order to calculate rates of incorporation for different concentrations of substrate, time points were chosen over intervals in which both triphosphate derivatives gave a linear rate of synthesis (FIG. 4B and 4C). […] For TTP, concentrations between 1.25 and 25 μM were used to obtain measurable differences in rates of incorporation over time (FIG. 4C). The apparent Km values for TTP and dPTP were determined by analysing the experimental data by the direct linear plot method (Eisenthal and Cornish-Bowden, 1974 J. Biochem. 139, 715). […] The value for dPTP thus compares favourably with those reported in the literature (Kong et al. 1993) for the four natural dNTPs [14 μM-17 μM].

[2] = substrate: O=C1NC2=NOCCC2=CN1[C@H]1C[C@H](O)[C@@H](COP(=O)(O)OP(=O)(O)OP(=O)(O)O)O1; assay: as above; conditions: other: 72° C.
Experimental: as §1, §2

[3] = substrate: Cc1cn([C@H]2C[C@H](O)[C@@H](COP(=O)(O)OP(=O)(O)OP(=O)(O)O)O2)c(=O)[nH]c1=O; assay: Steady state kinetics of insertion opposite template A or G, primed synthetic oligonucleotide templates; conditions: other: template A, 55° C.
Description: (§3) FIGS. 5A-D show (Top): Plots of initial velocities against [dNTP] for the incorporation by Taq polymerase of dPTP opposite A (A), TTP opposite A (B), dPTP opposite G (C), and dCTP opposite G (D).
(§4) In order to compare the relative efficiencies of insertion of dPTP opposite template adenine and guanine residues respectively, we adopted the procedure of Boosalis et al. (Boosalis et al., 1987 J. Biol. Chem. 262, 14689-14696) for the determination of steady state kinetics using one of two primed synthetic oligonucleotide templates (FIG. 5). The ^32 P-labelled primer in each case was extended by the incorporation of dGTP at two positions, followed by dPTP (template 1 and 2), TTP (template 1) or dCTP (template 2). Separation of the products by PAGE followed by quantitation of the radioactivity using a PhosphorImager allowed the determination of the initial velocities (Boosalis et al., 1987). Due to the very high extension rate of Taq polymerase, the kinetic parameters were determined at 55° C. The velocities for the insertion of the particular triphosphate opposite template (Vmax) and Km values (μM) for particular insertions were determined from non-linear regression fitting to the Michaelis-Menten equation.

[4] = substrate: Nc1ccn([C@H]2C[C@H](O)[C@@H](COP(=O)(O)OP(=O)(O)OP(=O)(O)O)O2)c(=O)n1; assay: as above; conditions: other: template G, 55° C.
Description: as §3, §4

[5] = substrate: O=C1NC2=NOCCC2=CN1[C@H]1C[C@H](O)[C@@H](COP(=O)(O)OP(=O)(O)OP(=O)(O)O)O1; assay: as above; conditions: 55° C.
Description: as §3, §4

B1: Taq Polymerase (Thermus aquaticus) (protein)
chain: MRGMLPLFEPKGRVLLVDGHHLAYRTFHALKGLTTSRGEPVQAVYGFAKSLLKALKEDGDAVIVVFDAKAPSFRHEAYGGYKAGRAPTPEDFPRQLALIKELVDLLGLARLEVPGYEADDVLASLAKKAEKEGYEVRILTADKDLYQLLSDRIHVLHPEGYLITPAWLWEKYGLRPDQWADYRALTGDESDNLPGVKGIGEKTARKLLEEWGSLEALLKNLDRLKPAIREKILAHMDDLKLSWDLAKVRTDLPLEVDFAKRREPDRERLRAFLERLEFGSLLHEFGLLESPKALEEAPWPPPEGAFVGFVLSRKEPMWADLLALAAARGGRVHRAPEPYKALRDLKEARGLLAKDLSVLALREGLGLPPGDDPMLLAYLLDPSNTTPEGVARRYGGEWTEEAGERAALSERLFANLWGRLEGEERLLWLYREVERPLSAVLAHMEATGVRLDVAYLRALSLEVAEEIARLEAEVFRLAGHPFNLNSRDQLERVLFDELGLPAIGKTEKTGKRSTSAAVLEALREAHPIVEKILQYRELTKLKSTYIDPLPDLIHPRTGRLHTRFNQTATATGRLSSSDPNLQNIPVRTPLGQRIRRAFIAEEGWLLVALDYSQIELRVLAHLSGDENLIRVFQEGRDIHTETASWMFGVPREAVDPLMRRAAKTINFGVLYGMSAHRLSQELAIPYEEAQAFIERYFQSFPKVRAWIEKTLEEGRRRGYVETLFGRRRYVPDLEARVKSVREAAERMAFNMPVQGTAADLMKLAMVKLFPRLEEMGARMLLQVHDELVLEAPKERAEAVARLAKEVMEGVYPLAVPLEVEVGIGEDWLSAKE
Km [1]: 9.25 µM
Km [2]: 22 µM
Km [3]: 6.1 µM
Km [4]: 2.03 µM
Km ([5]; other: template A): 5.2 µM
Km ([5]; other: template G): 12.1 µM
